Hit rate of the full screen: of about 48,000 compounds, about 120 (0.25%) were called active. Not shown: some 4% with an inconclusive outcome. Calls follow the shape of the dose curve; as a rule, active = well fitted activation curve with a large enough effect; inconclusive = small, poorly fitted or top-dose-only effect, or another doubt; inactive = no such curve, though single readings can be large or run the other way. The list shows a part of the results.
Assay: Primary qHTS for Identification of Small Molecule Activators of Huntingtin-Antisense Promoter Activity; also: nearly all actives have a fitted effect of over 55% in size
Conditions: HEK293 HTT-AS promoter firefly luciferase reporter, 24 h; series mostly up to 57.5 µM; activity change, positive = activation: at the top concentration
Outline: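 HEK293 Fluc reporter, 2,500 cells/well, 24 h pre-culture; cpds up to 57.5 uM final, 24 h 37 degrees C; Dual-Glo, 10 min RT; normalized vehicle = 0%, zero RLU = -100%.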

Activity change, positive = activation, inactive:
Cc1ccc(CCNC(=O)c2cc(-c3ccc(Cl)cc3)n[nH]2)cc1 0.694%, CN(Cc1ccc(C(C)(C)C)cc1)Cc1cccc2ccccc12 -15%, Cc1ccc(NC(=O)c2ccc3[nH]c(C)cc(=O)c3c2)c(C)c1 -9.69%, Cc1ccc(NC(=O)Cc2coc3c(C)c(C)ccc23)cc1Cl -16.8%, COc1ccc(Nc2ncc3c(n2)CCN(C(=O)OC(C)(C)C)C3)cc1 -2.32%, CN(C)CCOc1cc(-c2cn[nH]c2)ccc1NC(=O)C1COc2ccccc2O1 (stereo not given) -41.6%, COc1ccccc1CN1CCN(C2CCN(C(=O)NC(C)C)CC2)C(=O)C1=O 3.48%, CCOc1ccccc1C(=O)N(Cc1cccs1)c1ccc(Cl)cc1 -30.1%, O=C(Nc1ccccc1)c1cn(-c2ccccc2)nc1-c1ccccc1 -10.3%, O=C(NCCCNc1nc(Nc2cccc(NC(=O)N3CCCC3)c2)ncc1I)c1cccs1 -45.7%, Cc1cccc(-n2c3nc(=O)[nH]c(=O)c-3cc3c(C)nn(-c4ccccc4)c32)c1C -7.05%, COc1ccccc1NC(=O)CSC1=Nc2ccccc2N=C(c2ccc(F)cc2)C1 -13.1%, CCN(CC)C(=O)CSc1nc2ccccc2c(=O)n1Cc1ccco1 -14.5%, Cc1ccc(NC(=O)Cn2c(-c3cncs3)nc3ccccc32)cc1Br -26.5%, COc1ccc(Cl)cc1NC(=O)N1CC(=O)Nc2sc3c(c2C1c1ccccc1)CCCC3 (stereo not given) -29.4%, CCCc1nccn1S(=O)(=O)c1cc(Br)ccc1OC 6.53%, COc1cc2c(C(=O)N(C)c3cc(Cl)ccc3OC)cn(CC(C)C)c(=O)c2cc1OC -22.5%, CCN(C(=O)Cn1c(=O)n(CC2CCC(C(=O)NC)CC2)c(=O)c2sccc21)c1ccccc1 (stereo not given) -6.6%, Cc1nn(CCCC(=O)Nc2cccc(F)c2)c(=O)c2c1sc1ccccc12 -20.7%, COc1ccc(NC(=O)CN2C(=O)CCc3cc(S(=O)(=O)N4CCOCC4)ccc32)cc1Cl -18.3%, c1cc(CN2CCCNCCNCCCNCC2)ccc1CN1CCCNCCNCCCNCC1 -24%, COc1ccccc1C(=O)Nc1nc2nc(-c3ccccc3)cc(=O)n2[nH]1 0.649%, CCc1nn2c(=O)cc(COC(=O)c3ccc(NC(=O)c4cccs4)cc3)nc2s1 4.47%, Cc1ccccc1NS(=O)(=O)c1ccc2[nH]cc(C(=O)NC(C)c3ccccc3)c(=O)c2c1 (stereo not given) -44.6%, CCOc1ccccc1CNC(=O)Cn1ncn2nc(-c3cccs3)cc2c1=O 0.428%, COc1ccc(Nc2nnc(-c3cc4c(ccc5ccccc54)oc3=O)s2)cc1 4.3%, COc1ccccc1CCNC(=O)C(=O)NCC(c1cccs1)S(=O)(=O)c1ccc(C)cc1 (stereo not given) -34.9%, COC(=O)c1c(NC(=O)c2nc(SCc3cccc(C)c3)ncc2Cl)sc2c1CCCC2 -12.9%, COc1ccc(-n2nnc(-c3nc(-c4cccs4)no3)c2N)cc1OC 13.6%, CC(=O)N1CCCC1c1nc2ccccc2n1Cc1cccc(Cl)c1 (stereo not given) -14.9%, CCc1ccc(CNC(=O)COc2cc(=O)n(CC)c3ccccc23)cc1 -28.7%, Cc1ccc(-c2noc(-c3ccc(NCc4ccco4)c([N+](=O)[O-])c3)n2)cc1 17.4%, COc1cc(NC(=O)CC(c2ccc(C)cc2)N2Cc3ccccc3C2=O)cc(OC)c1 (stereo not given) -26.1%, CC1=C(c2ccc(F)cc2)S(=O)(=O)NC1=NCc1ccccc1F -17.3%, COc1ccc(-c2nc(C)c(CCNC(=O)C(=O)Nc3ccccc3C#N)s2)cc1OC 6.63%, COc1cc(C2CC(=O)c3c([nH]c(C(=O)OCC4CCCCC4)c3C)C2)cc(OC)c1OC (stereo not given) -51.2%, CCCN(C(=O)c1cn(C)c(=O)c2ccccc12)c1ccccc1C -9.07%, CCOc1ccccc1C(=O)N(Cc1cc(OC)c(OC)c(OC)c1)C1CCS(=O)(=O)C1 (stereo not given) 9.14%, O=C(CN1CCSc2ccccc21)NCc1ccccc1F 6.07%, COc1ccc2nc(N(Cc3cccnc3)C(=O)C3COc4ccccc4O3)sc2c1 (stereo not given) 18.4%, CN(C)CC[C@@H](c1ccc(Br)cc1)c1ccccn1 -5.25%, COc1ccc(N2CCN(S(=O)(=O)CCNC(=O)C3CC(=O)N(c4ccccc4)C3)CC2)cc1 (stereo not given) 12.8%, CCCOc1ccc(CN(C(=O)c2cc(=O)c3ccc(C)cc3o2)C2CCS(=O)(=O)C2)cc1 (stereo not given) -24.1%, Cc1nc(CC(=O)Nc2cc(Cl)ccc2C)cs1 -14.7%, COc1cc(C)ccc1OCCSc1nc(-c2cccc(C)c2)nc2cc(=O)[nH]n12 9.76%, COc1cccc(C(=O)CC2(O)C(=O)Nc3ccc(Cl)cc32)c1 (stereo not given) -17.7%, CCN(CC)CCCNC(=O)c1ccc2nc(N3CCCCC3)sc2c1 -48%, CCNC(=O)c1ccc2nc(CCc3ccccc3)oc2c1 28%, Cc1cc(Nc2ccccc2C)nc(-n2nc(C)cc2C)n1 -21.3%, COc1ccc(CCNC(=O)c2cc(C)nc3c2c(C)nn3-c2ccc(C)cc2)cc1OC -22.7%, Cc1n[nH]c(C)c1S(=O)(=O)N1CCCC(C(=O)Nc2ccc(Br)cc2)C1 (stereo not given) -33.2%, Cc1nn2c(C)c(C(=O)N3CCN(c4ccccc4)CC3)cnc2c1-c1ccccc1 3.48%, Cc1ccc(CCNC(=O)c2cc3c(=O)oc4ccccc4c3s2)cc1 -9.73%, COc1ccccc1OCCn1c(COc2cc(C)ccc2C)nc2ccccc21 -6.4%, COc1cccc(CNC(=O)CNS(=O)(=O)c2ccc3nc(C)sc3c2)c1 -13%, COc1cc(NC(=O)CSc2nc3ccccc3nc2Cc2ccccc2OC)cc(OC)c1 -16.9%, CCOc1ccccc1Nc1sc(C(=O)c2ccccc2)c(N)c1C(=O)NCCc1ccccc1 -3.92%, O=C(c1ccc(Cl)cc1)N(Cc1ccco1)Cc1ccco1 -22.7%, COc1cc(OC)cc(C(=O)Nc2ccc3oc(-c4ccccc4C)nc3c2)c1 -8.96%, CCC(=O)Nc1ccc(C)cc1-c1nc2ccccc2n(CC(=O)Nc2ccccc2Cl)c1=O -14.8%, COc1ccc(NC(=O)Cn2c(=O)n(CC3CCCO3)c(=O)c3ccccc32)c(OC)c1 (stereo not given) -10.1%, CCN(CC)S(=O)(=O)c1nnc(NC(=O)c2ccccc2Cl)s1 -8.42%, CC(C)CNc1nc(NC(C)(C)C)nc(Oc2ccc(=O)n(-c3ccccc3)n2)n1 -36.5%, COc1ccc(C)cc1NC(=O)COCc1cc(-c2cccs2)on1 -7.44%, CC(C)n1cnc2c(NCCc3ccc(O)cc3)nc(-c3csc4ccccc34)nc21 -66.9%, CCOc1ccc(NC(=O)CSc2nc3c(c(=O)[nH]2)CCCC3)cc1 -20.1%, O=C(CCS(=O)(=O)c1cc(Br)cc2c1N(C(=O)C1CC1)CC2)N1CCN(c2ccc(F)cc2)CC1 -15.2%, COc1cc(C2c3c(oc4ccc(F)cc4c3=O)C(=O)N2c2nc(C)c(C)s2)cc(OC)c1OC (stereo not given) -3.65%, Cc1ccc(N(C)C(=O)Cn2cnc3onc(-c4ccc(F)cc4)c3c2=O)cc1C -34.2%, CC1(C)[C@H](O[C@H]2O[C@H](C(=O)O)[C@@H](O)[C@H](O)[C@H]2O[C@@H]2O[C@H](C(=O)O)[C@@H](O)[C@H](O)[C@H]2O)CC[C@@]2(C)[C@H]1CC[C@]1(C)[C@H]2C(=O)C=C2[C@H]3C[C@@](C)(C(=O)O)CC[C@]3(C)CC[C@]21C -7.04%, COc1ccc(CCNC(=O)CCCn2c(=O)c3ccccc3n(Cc3ccc(C)cc3)c2=O)cc1OC -6.77%, Cc1ccc2ncc(C(=O)NCCc3ccc(S(N)(=O)=O)cc3)c(=O)n2c1 -1.45%, CC(C)OCCCNC(=O)CCCn1c(=O)[nH]c2ccsc2c1=O -13.8%, Cc1ccc(CNC(=O)C2CCC(CNS(=O)(=O)c3ccc4c(c3)CCCC(=O)N4)CC2)cc1 (stereo not given) -3.36%, CCNC(=O)c1cc2c(-c3cc(OCCN4CCCC4)c(Cl)cc3Cl)nc(N)nc2s1 -40.5%, CCOc1ccc(CNC(=O)c2cc(=O)[nH]c3ccc(S(=O)(=O)N4CCCCC4)cc23)cc1 -7.59%, Cc1cc(C)cc(Nc2cc(C(=O)NCCCN(Cc3ccccc3)C(C)C)c3ccccc3n2)c1 -49%, COc1ccc(N2CCN(S(=O)(=O)c3csc(C(N)=O)c3)CC2)cc1 -25.6%, Cc1cccc(C)c1OCCSc1nc2ccccc2n1CC(=O)O -10.1%, CCN(Cc1ccccc1)C(=O)Cn1c(=O)n(-c2ccc(F)c(Cl)c2)c(=O)c2sc3ccccc3c21 -6.59%, O=C(Nc1cccc(-c2nc3ccccc3o2)c1)c1cc([N+](=O)[O-])ccc1N1CCOCC1 -17.8%, CC(=O)Nc1ccc(NS(=O)(=O)c2ccc3c(c2)CC(C)N3C(=O)C2CCC2)cc1 (stereo not given) -26.4%, COC(=O)CC1Oc2ccc(F)cc2-n2cc(-c3ccc(Cl)cc3)nc21 (stereo not given) -25%, COc1ccc(NC(=O)CN2CCCN(S(=O)(=O)c3ccc(Br)cc3)CC2)c(OC)c1 4.51% [at 11.5 µM, percent change from vehicle, -100% = no light], Cc1cccc(-c2nc(CCNC(=O)c3ccco3)cs2)c1 -19.5%, CCOC(=O)c1ccc(NC(=O)CCS(=O)(=O)c2ccc(C)cc2)cc1 -24.6%, O=C(c1cc2ccc3cccnc3c2[nH]1)N1CCN(c2cccc(C(F)(F)F)c2)CC1 0.824%, Cc1ccc(NC(=O)c2oc3ccc(S(=O)(=O)N4CCCCC4)cc3c2C)cc1C 1.51%, COc1ccc2c(c1)c1c(c(=O)n(CCc3ccccc3)c(=O)n1Cc1ccccc1)n2C -10.8%, Cc1ccc(C)c2sc(NC(=O)c3ccc(S(=O)(=O)N4CCCC4)cc3)nc12 -29.8%, CCOc1ccc(CNC(=O)c2ccc3c(c2)nc2n3CCOC2)cc1 19.2%, CC(=O)N1CCOc2cc(S(=O)(=O)NCc3ccc(C)cc3)c(C)cc21 -10.7%, Cc1c(CNCc2ccc(OC(C)C)cc2)c(C(=O)O)c(C)n1Cc1ccc(Cl)cc1 -7.26%, CCN1CCN(CCCNC(=O)c2cc3c(=O)n(CC)c4ccccc4c3s2)CC1 -2.13%, COc1ccc(N(C(=O)c2ccccc2F)S(=O)(=O)c2ccc3c(c2)n(C)c(=O)n3C)cc1 -8.17%

Reference: PubChem BioAssay AID1508624 (National Center for Advancing Translational Sciences (NCATS), 2021)
